The values that follow come from the RNAGym collection of RNA variant scans (doi:10.1101/gad.245936.114).

The labels stand for the following.
B1: tRNA (parent)
chain: CUCUCGGUAGCCAAGUUGGUUUAAGGCGCAAGACUUUAAUUUAUCACUACGAAAUCUUGAGAUCGGGCGUUCGACUCGCCCCCGGGAGAUUUUUUCCUCGAGCAA

Variants at the background level are over-represented here.

Variants of B1 are the subject of this data set. Kind of data set: nonsense suppression (GFP-seq) (ratio to wild type); higher = more function; SUP4oc tRNA, yeast GFP reporter sort-seq. A digest of the protocol:
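To measure nonsense suppression, tRNA variants from a library carrying ~3% random mutations were integrated into the yeast genome alongside RFP and a GFP ochre reporter under galactose control. Growth took place in raffinose/galactose medium supplemented with 80 mg/L adenine, followed by sorting into GFP/RFP bins and Illumina sequencing of each bin (phred ≥30). For each variant with ≥100 reads and ≥30 cells, the bin median GFP/RFP values were weighted by its estimated cell share per bin and referenced to the unmutated parent tRNA.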
Turning to CUCUCGGUACCCAAGUUGGUUCAAGGCGCAAGAUUUUAAUUUAUCACUACGAAAUCUUGAGAUCGGGCGUUCGACUCGCCCCCGGGAGAUUUUUUCCUCGAGCAA [G10C U22C C34U], the nonsense suppression was at most 0.026. Next, CUCUCGGUAGCCAAGUUGGUUUAGGGCGCAAGACUUUAAUUUAUCACUACGAAAUCCUGAGAUCGGGCGUUCGACUCGCCCCCGGGAGAUUUUUUCCUCGAGCAA [A24G U57C]: at most 0.026; CUCUCGGCACCCAAGUUUGUUUAAGGAGCAAGACUUUAAUUUAUCACUACGAAAUCUUGAGAUCGGACGUUCGACUCGCCCCCGGGAGAUUUUUUCCUCGAGCAA [U8C G10C G18U C27A G67A]: at most 0.026; CUCUCGGUAGCUAAGUUGGUUUAAGGCGCAAGACUUUAAUUUAUCACUACGAAGUCUUGAGAUCGGGCAUUCGACUCGCCCCCGGGAGAUUUUUUCCUCGAGCAA [C12U A54G G69A]: at most 0.026. Next, CGCACGGCAGCCAAGUUGGUUUAAGGCGCAAGACUUUAAUUUAUCACUACGAAAUCUUGAGAUCGGGCGUUCGAGUCGCCCCAGGGAGAUUUUUUCCUCGAGCAA [U2G U4A U8C C75G C83A]: at most 0.026. Next, CUGUCGGUAGCCAAGUUGGUCUAAGGAGCAAGACUUUAAUUUAUCACUACGAAAUCUUGAGAUCGGGCGUUCGACUCGCCCCCGGGAGAUUUUUUCCUCGAGCAA [C3G U21C C27A]: at most 0.026; CUCUCAGUAGCCAAGUUGCUUUAAGGCGCAAGACUUUAAUUUAUCACUACGAAAUCUUGAGAUCGGCCGUUCGACUCGCCCCCGGGGGAUUUUUUCCUCGAGCAA [G6A G19C G67C A87G]: at most 0.026; CUCUCGGUAGCCAAGUUGGUUUAAGGCGCAAGACUUUAAUUUAUCACUACGAAAUCUUGACAUGGGGCGUUCGAGUCGCCCCCGGGAGAUUUUUUCCUCGAGCAA [G61C C64G C75G]: at most 0.026. With CACUCGGUAGCCAAGUUGGUUUUAGUCGCAAGACUUUAAUUUAUCACUACGAAAUCUUGAGAUCGGGCGUACGACUCGCCCCCGGGAGAUUUUUUCCUCGAGCAA [U2A A23U G26U U71A], the nonsense suppression was at most 0.026. Next, CUCUCGGUAGCCAAGUUGGUUUAAGGCGCAAGACUUUAAUUUAUCACUACGAAAUCUUGAGAGCGGGCGUUCGACUCGCCGCCGGGAGAUUUUUUCCUCGAGCAA [U63G C81G]: at most 0.026. Next, CUCUCGGUAGCCUAGUUGGUUUAAGGCGCAAAAUUUUAAUUUAUCACUACGAAAUCUUGAGACCGGGCGUUCGACUCGCCCCCGGGAGAUUUUUUCCUCGAGCAA [A13U G32A C34U U63C]: at most 0.026; CUCUCGGUAGCCAAGUUGGUUUAAGGCGCAUGACCUUAAUUUAUCACUACGAAAUCUUGAGAUCGGGCGUUCGACUCGCCCCCGGGAGAUUUUUUCCUCGAGCAA [A31U U35C]: at most 0.026; CUCUCGGUAGCCAAGUUGGUUUAAGGCGCAUGACAUUAAUUUAUCACUACGAAAUCUUGAGAUCGGGCGUUCGACUCGCCCCCGGGAGAUUUUUUCCUCGAGCAA [A31U U35A]: at most 0.026.

For the variant CUCUCGGUAGCCAAGUCGGUUUAAGGCGCAAGACUUUAAUUUAUCACUACGAAAUCUUGAAAUCGGGCGUUCGACUCGCCCCGGGGAGAUUUUUUCCUCGAGCAA [U17C G61A C83G], the nonsense suppression was at most 0.026. With CUCUCGGUAGCCAAGUGGGUUUAAAGCGCAAGACUUUAAUUUAUCACUACGAAAUCUUGAAAUCGGGCGUUCGACUCGCCCCCGGGAGAUUUUUUCCUCGAGCAA [U17G G25A G61A], the nonsense suppression was at most 0.026.

Consider CUCUCGGUAGCCAGGUUGGUUUAAGGCGCAAGACUUUAAUUUAUCACUACGAAAUCUUGUGAUCGGGCGUUCGACUAGCCCCCGGGAAAUUUUUUCCUCGAGCAA [A14G A60U C77A G88A], for which the nonsense suppression is at most 0.026. Next, CUCUCUGUAGCCGAGUUGGAUUAAGGCGCAAGACUUUAAUUUAUCACUACGAAAUCUUGAGAUCCGGCGUUCGACUCGCCCCCGGGAGAUUUUUUCCUCGAGCAA [G6U A13G U20A G65C]: at most 0.026; CUCUCGGUAGCCAAGUUGUUUUAAGGCGCAAGACUUUAAUUUAUCACUACGAAAUCUUGAGAUCGGGCGUUCGACCCGCCCCCGGGAGAUUUUUUCCUCGAGCAA [G19U U76C]: at most 0.026. Next, CUCUCGGUAGCCAAGUUGGUUUAAGGAGCACGACUUUAAUUUAUCACUACGAAAUCUUGAGAUCGGGCGUUCGACUCGCCCCCGGGAGAUUUUUUCCUCGAGCAA [C27A A31C]: at most 0.026; CUCUCGGUAGCCAAGUUGGUUUAAGGCGCGAGACUUUAAUUUAUCACUACGAAAUCUUGAGAUCGGGCGUUGGACUCGCCCCCGGGAGAUUUUUUCCUCGAGCAA [A30G C72G]: 0.0409; CUCUCGGUAGCCAAGUUGGUUUUAGGCGAAAGACUUUAAUUUAUCACUACGAAAUCUUGAGAUCGGGCGUUCGACUCGCCCCCGGUAGAUUUUUUCCUCGAGCAA [A23U C29A G86U]: at most 0.026.

CUCUCGGUAGCCAAGUUCGUUUACGGCGCAAGACUUUAAUUUAUCACUACGAAAUCUUGAGAUCGGGCGUUAGCCUCGCCCCCGGGAGAUUUUUUCCUCGAGCAA [G18C A24C C72A A74C]: the nonsense suppression is at most 0.026. Consider AUCUCGGUAGCCAAGUUGGUUUAAGGCGCAAGACUUUAAUUUAUCACUACGAAAUCUUGAGAUCGGGCGCUCGACUCCCCCCCGGGAGAUUUUUUCCUCGAGCAA [C1A U70C G78C], for which the nonsense suppression is at most 0.026. Next, UUCUCGGUAGCCAAGUUGGUUUAAGGCGCAAGAUUUUAAUUUAUCACUACGAACUCUUGAGAUCGGGCGUUCGACGCGCCCCCAGGAUAUUUUUUCCUCGAGCAA [C1U C34U A54C U76G G84A G88U]: at most 0.026. Turning to CUCUCGGUAGCCGAGUUGGUUUAACGCGCCAGACUUUAAUUUAUCACUACGAAAUCUUGAGAUCGGGCGUUCGACUCGCCCCCGGGGGAUUUUUUCCUCGAGCAA [A13G G25C A30C A87G], the nonsense suppression was at most 0.026. Next, CUCUCGGUAGCCAAGUUGGUUUAAGGCGCAAGACUUUAAUUUAUCACUACGAAAUCUUGAGAUCGGGCGUUCGACGCGCCCCCGUGAAAUUUUUUCCUCGAGCAA [U76G G85U G88A]: at most 0.026; CUCUCGGUAGCCAAGUUGGUUUCAGGAGCAAGACGUUAAUUUAUCACUACGAAAUCUUGAGAUCGGGCGUUCGACUCGCCCCCGGGAGAUUUUUUCCUCGAGCAA [A23C C27A U35G]: at most 0.026.
